Molecules are shown by their SMILES. Whole data set: some 110,000 compounds, median “z-score” near -0.1, cut for the highest 2% near 2. This is one part of the list. Calls of active or inactive are those of the source.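 Rule for the calls: active = z-score in the third read window above 3 or below -3; inactive = the rest.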

This assay has as its target Metabotropic glutamate receptor 8 (Rattus norvegicus) (UniProt P70579). In words: rat mGluR8 modulators via GIRK flux, primary screen, cell-based, thallium flux, HTS (AID 488969). Conditions: HEK293 rat mGluR8, GIRK (G protein-gated inwardly rectifying potassium channel) thallium flux, FluoZin2; at 10 µM; stronger effect = higher value; submaximal glutamate (EC20) added with thallium.
Chain of UniProt P70579 (P70579 whole entry, looked up): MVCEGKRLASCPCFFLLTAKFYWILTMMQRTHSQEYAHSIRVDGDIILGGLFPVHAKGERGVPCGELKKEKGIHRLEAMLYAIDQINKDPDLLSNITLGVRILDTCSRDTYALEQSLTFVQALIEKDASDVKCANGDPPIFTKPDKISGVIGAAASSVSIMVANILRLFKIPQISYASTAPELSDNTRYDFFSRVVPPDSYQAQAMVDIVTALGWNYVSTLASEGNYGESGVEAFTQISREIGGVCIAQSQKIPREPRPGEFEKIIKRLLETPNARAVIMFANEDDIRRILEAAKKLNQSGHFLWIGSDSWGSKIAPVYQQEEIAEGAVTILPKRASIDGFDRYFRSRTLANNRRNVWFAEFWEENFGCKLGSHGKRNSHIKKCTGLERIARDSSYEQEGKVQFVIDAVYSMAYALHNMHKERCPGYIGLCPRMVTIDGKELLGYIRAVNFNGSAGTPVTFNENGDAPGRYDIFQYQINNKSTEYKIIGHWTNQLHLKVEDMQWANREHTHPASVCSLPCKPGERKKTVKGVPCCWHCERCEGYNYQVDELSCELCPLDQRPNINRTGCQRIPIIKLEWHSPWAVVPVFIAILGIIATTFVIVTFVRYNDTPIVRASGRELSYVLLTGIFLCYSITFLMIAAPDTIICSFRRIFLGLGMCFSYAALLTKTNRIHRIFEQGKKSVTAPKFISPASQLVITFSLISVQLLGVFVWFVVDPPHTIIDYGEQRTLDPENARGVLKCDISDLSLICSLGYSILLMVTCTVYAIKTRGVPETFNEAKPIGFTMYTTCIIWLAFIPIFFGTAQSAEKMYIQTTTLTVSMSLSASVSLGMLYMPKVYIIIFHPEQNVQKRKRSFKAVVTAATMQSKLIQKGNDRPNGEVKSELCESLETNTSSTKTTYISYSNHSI
Turning to `CC1CCCCN1C(=O)Cn1cc(C=O)c2ccccc21` (stereo not given), the z-score amounted to 0.00317.
Turning to `Cc1ccc(C)c(NC(=O)C(Sc2nc3ccc(C)cc3[nH]2)c2ccccc2)c1` (stereo not given), the z-score was -0.188.
The figure for `CCn1c(SCC(=O)NCc2ccco2)nc2c(c1=O)SC(C)C2` (stereo not given) is -0.332.
In turn, `CC(C)NC(=O)c1noc2cc([N+](=O)[O-])ccc12` registered a z-score of 0.0562.
`Cc1occc1C(=O)N/N=C/c1cccnc1` yielded a z-score of 0.302.
As to `Cn1c(C(=O)N2CCN(C(=O)c3ccco3)CC2)cc2c(=O)n3ccccc3nc21`, the z-score stood at 0.0164.
`O=C(Nc1cccc(C(F)(F)F)c1)N1CCN(C(=O)Nc2cccc(C(F)(F)F)c2)CC1` gave a z-score of -0.185.
`CC(=O)c1c(C)n(C)c2ccc(OC(=O)c3ccco3)cc12` gave a z-score of 0.0386.
The same measure for `O=C(c1cnn2c(C(F)(F)F)cc(-c3ccc4c(c3)OCO4)nc12)N1CCCC1`: -0.369.
`Clc1ccc(OCc2nc(-c3ccc(Br)o3)no2)cc1` showed a z-score of -0.414.
Regarding `O=C(Cc1ccc(NS(=O)(=O)c2ccc(F)cc2)cc1)NCc1ccccc1`, the z-score was -0.136.
The figure for `Brc1ccc(Oc2nnnn2-c2ccccc2)cc1` is 0.0613; for `CCn1c(CNc2ccc(OC)cc2)nnc1SCC(=O)N1CCCc2ccccc21` it is 0.461; for `CC1=NN(C(C#N)c2cccc([N+](=O)[O-])c2)C(C)(C)C1` (stereo not given) it is -0.192.
The figure for `Cc1ccc(S(=O)(=O)NNC(=O)Nc2ccc(Cl)cc2)cc1` is -0.126.
The same measure for `NS(=O)(=O)c1ccc(CCNC(=O)COC(=O)CCSc2ccc(Cl)cc2)cc1`: 0.403; for `O=C1c2ccccc2C(=O)N1c1ccc(-c2nc3ccccc3o2)cc1`: 0.248; for `CC1CCN(C2=NC(=O)/C(=C/c3cn[nH]c3-c3ccccc3)S2)CC1`: 0.356.
In turn, `O=C(NCC1CCCO1)Nc1ccccc1` (stereo not given) showed a z-score of -0.264.
The same measure for `Cc1ccccc1OCC(=O)Nc1ccc(Cc2ccncc2)cc1`: -0.331; for `O=C(Nc1ccc(F)cc1)c1cccnc1N1CCOCC1`: 1.11; for `COc1cc(OC)cc(C(=O)NC2CCN(CC(=O)Nc3cccc4ccccc34)CC2)c1`: -0.467.
`Cc1ccc(NC(=S)NCc2ccc3c(c2)OCO3)c(C)c1`: the z-score is -0.105.
As for `Cc1ccc(S(=O)(=O)N2CCOCC2)cc1C(=O)N1C(=O)c2cccc(N)c2C1=O`, the z-score was -0.279.
In the case of `CCOc1cc(C(=O)N2CCOCC2)ccc1OCc1ccccc1`, the z-score is -0.298.
Regarding `Cc1ccc2c(N)c(C(=O)N(c3ccccc3)c3ccccc3)sc2n1`, the z-score is -0.28.
Molecule `CC(C)(C)c1ccc(COC(=O)Nc2ccc(F)cc2)cc1` gave a z-score of -0.203.
The same measure for `COc1cc2cc(CN(CCO)C(=O)c3cccs3)c(=O)[nH]c2cc1OC`: -0.168.
`CCOC(=O)CN1C(=O)C(O)(CC(=O)c2cccc(OC)c2)c2ccccc21` (stereo not given): the z-score was found to be 0.641.
The figure for `COCn1c(-c2ccc(OC)cc2)nc2ccccc21` is -0.0802; for `Cn1c(CSCc2ccc(Cl)cc2)nnc1SCC(=O)Nc1nc2ccccc2s1` it is 0.543; for `Cc1cc(C)cc(NCCC#N)c1` it is 0.0563.
The figure for `Nc1nnnn1/N=C/c1ccccn1` is -0.0914; for `CCC(c1nnc(SCCNCCO)n1CCN1CCOCC1)N(C)C` (stereo not given) it is -0.0687; for `Cc1ccc(CNC(=O)C2CCCN(Cc3cnn(-c4ccccc4)c3-n3cccc3)C2)cc1` (stereo not given) it is 0.263.
`CC(C)OC(=O)CSc1nnc(-c2ccco2)n1N` gave a z-score of 0.134.
`Cc1cc(C)n(-c2cc(N3CCN(S(=O)(=O)c4ccc5ccccc5c4)CC3)ccc2[N+](=O)[O-])n1` registered a z-score of -0.296.
The molecule `CN(Cc1ccccc1)C(=O)CCc1ccccc1` returned a z-score of -0.144.
As to `CCS(=O)(=O)Nc1ccc(-c2cc(-c3ccccc3)c3cc(C)ccc3n2)cc1`, the z-score is -0.14.
Regarding `Cc1cccc(NC2=C(Cl)C(=O)OC2NC(=O)c2ccccc2)c1` (stereo not given), the z-score is -0.108.
Molecule `c1ccc(-c2nc(CSc3n[nH]c(-c4cccs4)n3)cs2)cc1` yielded a z-score of 0.259.
Molecule `Cc1ccc(-c2nnn(CC(=O)N(c3ccccc3)C(C(=O)NCC3CCCO3)c3ccc(Cl)cc3)n2)cc1` (stereo not given) returned a z-score of -0.203.
Regarding `CC(CN(C)Cc1ccccc1)OC(=O)c1cccc(F)c1` (stereo not given), the z-score is -0.189.
`CCOc1ccc(C(=O)Nc2ccc(-c3nc4ccccc4[nH]3)cc2)cc1[N+](=O)[O-]` displayed a z-score of -0.0953.
In the case of `Nc1cc(=O)[nH]c(SCC(=O)N2CCCc3ccccc32)n1`, the z-score was -0.0699.
In the case of `CCOC(=O)c1ccc(N2CCN(c3ccccc3F)CC2)c(NC(=O)Nc2ccccc2)c1`, the z-score is -0.0534.
In turn, `NC(=O)COC(=O)CC(NC(N)=O)c1ccc(Cl)cc1` (stereo not given) came in with a z-score of 0.0124.
In the case of `CCCOc1ccc2c3c(c(=O)oc2c1)CCCC3`, the z-score is -0.349.
The same measure for `CC(=O)NCN1CCN(CNC(C)=O)CC1`: -0.549; for `COc1cccc(C(=O)Nc2ccc(F)c(F)c2F)c1`: -0.113; for `CC(C)COc1ccc2[nH]c3c(c2c1)CCCC3=O`: -0.601.
In the case of `O=C(N/N=C/c1c(O)ccc2ccccc12)c1cccc(C(F)(F)F)c1`, the z-score was -0.0953.
Consider `O=C(c1ccc2c(=O)n(-c3ccccc3)c(=O)[nH]c2c1)N1CCN(c2ccc(F)cc2)CC1`, for which the z-score was -0.782.
Molecule `Fc1ccc(OCc2nnc(SCCN3CCOCC3)o2)cc1` displayed a z-score of 0.319.
`CCCCC1OC23CCCCC2C(C#N)(C(=N)O3)C1(C#N)C#N` (stereo not given) displayed a z-score of -0.383.
In the case of `Cc1ccc(/C=[N+](/[O-])C2SC(=S)N(C)C2(C)C)cc1` (stereo not given), the z-score was -0.232.
Molecule `CC(=NCc1cccnc1)C1=C(O)c2ccccc2C1=O` gave a z-score of -0.77.
The same measure for `Cc1ncsc1CCSc1n[nH]c(=O)n1-c1ccccc1`: -0.0267.
The figure for `Cc1ccc(CNC(=O)Cn2c([N+](=O)[O-])cnc2C)cc1` is 0.0993; for `O=C(COc1ncnc2ccccc12)N1CCN(S(=O)(=O)c2ccccc2)CC1` it is 0.475.
The same measure for `CCCCNc1ccc(S(N)(=O)=O)cc1[N+](=O)[O-]`: -0.177; for `O=C(Cc1cccs1)N1CCN(C(=O)C2CCCO2)CC1` (stereo not given): 0.349.
On to `Cn1c(COc2nnc(-c3ccc(Cl)cc3)c3ccccc23)nc2ccccc21`, for which the z-score is -0.0923.
`O=C(NCc1ccco1)c1ccc2c(c1)C(=O)N(Cc1ccccc1)C2=O` showed a z-score of -0.715.
The figure for `O=C(Cn1nc(C(F)(F)F)c2c1CCC2)N1CCN(c2ccccc2)CC1` is -0.164; for `COc1ccc(/C=N/NC(=O)c2nc(-c3ccccc3)cc(-c3ccccc3)n2)cc1` it is active: 8.06.
In the case of `Cc1ccc(OCCCC(=O)NCc2ccco2)cc1`, the z-score was -0.00785.
As for `CCc1ccc(NC2=NC(C(=O)NC3CCCCC3)CC(=O)N2)cc1` (stereo not given), the z-score was 0.68.
Molecule `CCN1CCN(C(=S)c2ccc(OCC(=O)Nc3ccc(OC)cc3)cc2)CC1` showed a z-score of -0.115.
`CCN1C(=O)/C(=C2/C(=O)N3c4c(cc(OC(C)=O)cc42)C(C)=CC3(C)C)SC1=S`: the z-score is -0.169.
The same measure for `O=P(O)(CCc1ccccc1)CN1CCCCC1`: 0.373; for `Cc1ccc(N(C(=O)c2csnn2)C(C(=O)NC(C)(C)C)c2ccncc2)cc1` (stereo not given): -0.134.
`CCOC(=O)Nc1sc(NS(=O)(=O)c2ccc(C)cc2)nc1C` registered a z-score of -0.424.
The molecule `COCc1cc(C)c2c(N)c(C#N)sc2n1` yielded a z-score of 0.336.
For `CCn1c(CCNC(=O)c2cccs2)nnc1SCC(=O)Nc1cccc(Cl)c1`, the z-score is -0.277.
As to `Cc1cc2c(=O)n(CC(=O)N3CCN(c4ccccc4)CC3)cnc2s1`, the z-score is -0.539.
Molecule `COc1ccc(OC)c2sc(NC(=O)CCS(=O)(=O)c3ccccc3)nc12` showed a z-score of -0.271.
With `COc1ccc(NC(=O)C2CC(=O)OC2(C)C)cc1` (stereo not given), the z-score is -0.102.
Turning to `O=P(c1ccccc1)(c1ccccc1)N(c1ccccc1)c1ccccc1`, the z-score was -0.752.
The figure for `C/C(=N\Nc1nc(-c2ccccc2)cs1)c1cccs1` is -0.355; for `COc1ccc(OC)c(NC(=O)CCN2CCC(C)CC2)c1` it is -0.2; for `O=C(CCS(=O)(=O)c1cccs1)N1CCCC1` it is 0.157.
The molecule `N#Cc1c(NC(=O)CSc2ncc(-c3ccccc3)n2CC2CCCO2)sc2c1CCCC2` (stereo not given) came in with a z-score of 0.288.
Regarding `Cc1ccccc1C(=O)NNC(=S)NC(=O)COc1ccccc1`, the z-score is active: 4.25.
`O=C(c1ccccc1Nc1ccc(SC(F)F)cc1)N1CCCCC1` showed a z-score of -0.0659.
The molecule `CC1CCN(S(=O)(=O)c2ccc(S(=O)(=O)NCc3ccccc3)cc2)CC1` showed a z-score of 0.689.
Molecule `Cc1ccc(S(=O)(=O)/N=C(\Nc2cccc(C)c2)Nc2nc(C)cc(C)n2)cc1` had a z-score of 0.627.
On to `COc1ccc(CN(C(=O)c2ccc(-c3ccccc3)[nH]2)C(C(=O)NCC2CCCO2)c2ccc(C)o2)cc1` (stereo not given), for which the z-score was -0.244.
Molecule `O=C(O)CCCC(=O)N1CCN(c2nc(-c3ccccc3)c3ccccc3n2)CC1` returned a z-score of -1.23.
Consider `CN(C)C(=O)N1CCC(C(=O)NCC2CCCO2)CC1` (stereo not given), for which the z-score is 0.123.
`Cc1cc(=O)oc2cc(NC(=O)CCCC(=O)O)ccc12` came in with a z-score of -0.358.
With `CC1(C)NC(=O)N(CCOCCSc2ccccc2)C1=O`, the z-score is 0.626.
The figure for `CC(C)(C)NC(=O)CN(C(=O)Cn1nnc(-c2ccccc2F)n1)c1cccc2c1CCCC2` is -0.408; for `Cc1cc(C)nc(NS(=O)(=O)c2ccc(Br)s2)c1` it is 0.0301.
Consider `COCCN1C(=O)/C(=C/c2ccc(Oc3ccc([N+](=O)[O-])cn3)c(OC)c2)SC1=Nc1ccccc1`, for which the z-score amounted to 0.27.
`Cc1ccc(N2C(=O)c3ccccc3C2Nc2ccc(S(=O)(=O)N3CCCCC3)cc2)nc1` (stereo not given) returned a z-score of -0.176.
Molecule `COc1ccc(-n2nnnc2SCC(=O)NNC(=O)c2ccc([N+](=O)[O-])cc2)cc1` gave a z-score of 0.425.
On to `Cc1nc(CCNC(=O)c2cccs2)cs1`, for which the z-score is 0.207.
The same measure for `O=C(COC(=O)C12CC3CC(CC(C3)C1)C2)N1CCN(S(=O)(=O)c2ccccc2)CC1`: -0.0502.
Molecule `COC(=O)C(O)(CC(=O)c1ccc(OC)cc1)C(F)(F)F` (stereo not given) returned a z-score of -0.345.
`CCOc1ccc(Oc2nc(NCC(C)C)nc(N(C)C)n2)nn1` had a z-score of -0.0925.
On to `CC(=O)c1nn(-c2cccc(Br)c2)cc1C(=O)c1cccc2ccccc12`, for which the z-score is -0.0218.
The molecule `Cc1nccc(-c2ccc(-n3cnc4ccccc43)cc2)n1` yielded a z-score of -0.679.
`CS(=O)(=O)Nc1cccc(C2=NN(S(=O)(=O)c3ccccc3)C(c3cccs3)C2)c1` (stereo not given) yielded a z-score of -0.213.
The molecule `CCCC(=O)Nc1nnc(COC)s1` displayed a z-score of 0.217.
Regarding `Cc1ccccc1C(=O)c1c[nH]c(C(=O)NCC2CCCO2)c1` (stereo not given), the z-score was -0.213.
In turn, `O=S(=O)(c1ccccc1Cl)N1CCCC1c1nc(-c2cccc(Cl)c2)no1` (stereo not given) registered a z-score of 0.278.
On to `O=C1CCCN1c1ccc(S(=O)(=O)NCc2ccco2)cc1`, for which the z-score was found to be 0.189.
In turn, `COc1ccc(CCNC(=O)C/C(C)=N/NC(=O)C23CC4CC(CC(C4)C2)C3)cc1OC` gave a z-score of -0.347.
Turning to `CCC(C(=O)NC(C)(C)C)N(C(=O)Cn1nnc(-c2ccccc2F)n1)c1cccc2c1CCCC2` (stereo not given), the z-score came to 0.779.

Source of the values: PubChem BioAssay AID488969 (Vanderbilt High Throughput Screening Facility, 2010).
